# Test results as given in the supplement of paper PMC8728848.
# Some of the results follow.
# Key:
# Assay in all cases: glycan array binding signal (z-score within array); higher = stronger binding
# Settings in all cases: glycan notation: IUPAC condensed, linker removed
# [1] = target: Fuc(a1-2)Gal
# Method in brief: (§1)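 The binding signal is a Z-score computed within each array. Data were drawn from 3228 arrays in the Consortium for Functional Glycomics database, restricted to those with a known protein sequence. Scores were averaged over arrays of the same protein sequence at different concentrations or buffers, and over linkers, and negative values can be taken as non-binding.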
# [2] = target: Fuc(a1-2)Gal(b1-3)GalNAc
# Method in brief: as §1
# [3] = target: Fuc(a1-2)Gal(b1-3)GalNAc(a1-3)[Fuc(a1-2)]Gal(b1-4)Glc
# Method in brief: as §1
# [4] = target: Fuc(a1-2)Gal(b1-3)GalNAc(a1-3)[Fuc(a1-2)]Gal(b1-4)GlcNAc
# Method in brief: as §1
# [5] = target: Fuc(a1-2)Gal(b1-3)GalNAc(b1-3)Gal
# Method in brief: as §1
# [6] = target: Fuc(a1-2)Gal(b1-3)GalNAc(b1-3)Gal(a1-4)Gal(b1-4)Glc
# Method in brief: as §1
# [7] = target: Fuc(a1-2)Gal(b1-3)GalNAc(b1-4)[Neu5Ac(a2-3)]Gal(b1-4)Glc
# Method in brief: as §1
# [8] = target: Fuc(a1-2)Gal(b1-3)GlcNAc
# Method in brief: as §1
# [9] = target: Fuc(a1-2)Gal(b1-3)GlcNAc(b1-2)Man(a1-3)[Fuc(a1-2)Gal(b1-3)GlcNAc(b1-2)Man(a1-6)]Man(b1-4)GlcNAc(b1-4)GlcNAc
# Method in brief: as §1
# [10] = target: Fuc(a1-2)Gal(b1-3)GlcNAc(b1-2)Man(a1-3)[Fuc(a1-2)Gal(b1-3)GlcNAc(b1-2)Man(a1-6)]Man(b1-4)GlcNAc(b1-4)[Fuc(a1-6)]GlcNAc
# Method in brief: as §1
# [11] = target: Fuc(a1-2)Gal(b1-3)GlcNAc(b1-3)Gal(b1-4)Glc
# Method in brief: as §1
# [12] = target: Fuc(a1-2)Gal(b1-3)GlcNAc(b1-3)GalNAc
# Method in brief: as §1
# [13] = target: Fuc(a1-2)Gal(b1-3)GlcNAc(b1-3)[Fuc(a1-3)[Gal(b1-4)]GlcNAc(b1-6)]Gal(b1-4)Glc
# Method in brief: as §1
# [14] = target: Fuc(a1-2)Gal(b1-3)GlcNAc(b1-3)[Gal(b1-4)GlcNAc(b1-6)]Gal(b1-4)Glc
# Method in brief: as §1
# [15] = target: Fuc(a1-2)Gal(b1-3)[Fuc(a1-4)]GlcNAc
# Method in brief: as §1
# [16] = target: Fuc(a1-2)Gal(b1-3)[Fuc(a1-4)]GlcNAc(b1-2)Man(a1-3)[Fuc(a1-2)Gal(b1-3)[Fuc(a1-4)]GlcNAc(b1-2)Man(a1-6)]Man(b1-4)GlcNAc(b1-4)GlcNAc
# Method in brief: as §1
# [17] = target: Fuc(a1-2)Gal(b1-3)[Fuc(a1-4)]GlcNAc(b1-3)[Fuc(a1-3)[Gal(b1-4)]GlcNAc(b1-6)]Gal(b1-4)Glc
# Method in brief: as §1
# [18] = target: Fuc(a1-2)Gal(b1-3)[Fuc(a1-4)]GlcNAc(b1-3)[Gal(b1-4)GlcNAc(b1-6)]Gal(b1-4)Glc
# Method in brief: as §1
# [19] = target: Fuc(a1-2)Gal(b1-4)Glc
# Method in brief: as §1
# [20] = target: Fuc(a1-2)Gal(b1-4)Glc6S
# Method in brief: as §1
# [21] = target: Fuc(a1-2)Gal(b1-4)GlcNAc
# Method in brief: as §1
# [22] = target: Fuc(a1-2)Gal(b1-4)GlcNAc(b1-2)Man(a1-3)[Fuc(a1-2)Gal(b1-4)GlcNAc(b1-2)Man(a1-6)]Man(b1-4)GlcNAc(b1-4)GlcNAc
# Method in brief: as §1
# [23] = target: Fuc(a1-2)Gal(b1-4)GlcNAc(b1-2)Man(a1-3)[Fuc(a1-2)Gal(b1-4)GlcNAc(b1-2)Man(a1-6)]Man(b1-4)GlcNAc(b1-4)[Fuc(a1-6)]GlcNAc
# Method in brief: as §1
# [24] = target: Fuc(a1-2)Gal(b1-4)GlcNAc(b1-2)[Fuc(a1-2)Gal(b1-4)GlcNAc(b1-4)]Man(a1-3)[Fuc(a1-2)Gal(b1-4)GlcNAc(b1-2)Man(a1-6)]Man(b1-4)GlcNAc(b1-4)GlcNAc
# Method in brief: as §1
# [25] = target: Fuc(a1-2)Gal(b1-4)GlcNAc(b1-3)Gal(b1-4)GlcNAc
# Method in brief: as §1
# [26] = target: Fuc(a1-2)Gal(b1-4)GlcNAc(b1-3)Gal(b1-4)GlcNAc(b1-3)Gal(b1-4)GlcNAc
# Method in brief: as §1
# [27] = target: Fuc(a1-2)Gal(b1-4)GlcNAc(b1-3)GalNAc
# Method in brief: as §1
# [28] = target: Fuc(a1-2)Gal(b1-4)GlcNAc6S
# Method in brief: as §1
# [29] = target: Fuc(a1-2)Gal(b1-4)[Fuc(a1-3)]GlcNAc
# Method in brief: as §1
# [30] = target: Fuc(a1-2)Gal(b1-4)[Fuc(a1-3)]GlcNAc(b1-2)Man(a1-3)[Fuc(a1-2)Gal(b1-4)[Fuc(a1-3)]GlcNAc(b1-2)Man(a1-6)]Man(b1-4)GlcNAc(b1-4)GlcNAc
# Method in brief: as §1
binder,measurement,setting,value
Gal 4 (Canis lupus) (protein) MAYVPAPGYQPTYNPTLPYNKPIPGGLSVGMSVYIQGITSEHMRRFCVNFVAGAHPGSDIAFHFNPRFDGWDKVVFNSHLGGKWGSEEKKRSMPFRKGTHFELVFMVLAEHYKVVVNGNPFYEFGHRLPLQLVTHLQVEGDVELQSINFIGGTQPLGQGPGHTQQQPSSLPTMEGPPVFNPPVPFRKRLQGGLTVRRTVIIKGFVPFTSKSFVINFMVESSGDLALHINPRLTEGLVVRNSCLNGSWGSEDRKLSYNPFIPGQFFDLSIRCGMDRFKVYANGQHLFDFSHRLLALQNVDMLEINGDVTLSYIQV,glycan array binding signal (z-score),[1],-0.149
same,glycan array binding signal (z-score),[2],-0.154
same,glycan array binding signal (z-score),[3],-0.13
same,glycan array binding signal (z-score),[4],-0.151
same,glycan array binding signal (z-score),[5],-0.153
same,glycan array binding signal (z-score),[6],-0.147
same,glycan array binding signal (z-score),[7],-0.15
same,glycan array binding signal (z-score),[8],-0.155
same,glycan array binding signal (z-score),[9],-0.129
same,glycan array binding signal (z-score),[10],-0.145
same,glycan array binding signal (z-score),[11],0.072
same,glycan array binding signal (z-score),[12],-0.154
same,glycan array binding signal (z-score),[13],-0.147
same,glycan array binding signal (z-score),[14],-0.144
same,glycan array binding signal (z-score),[15],-0.153
same,glycan array binding signal (z-score),[16],-0.126
same,glycan array binding signal (z-score),[17],-0.157
same,glycan array binding signal (z-score),[18],-0.151
same,glycan array binding signal (z-score),[19],-0.09
same,glycan array binding signal (z-score),[20],0.071
same,glycan array binding signal (z-score),[21],-0.152
same,glycan array binding signal (z-score),[22],-0.141
same,glycan array binding signal (z-score),[23],-0.159
same,glycan array binding signal (z-score),[24],-0.146
same,glycan array binding signal (z-score),[25],-0.117
same,glycan array binding signal (z-score),[26],-0.136
same,glycan array binding signal (z-score),[27],-0.137
same,glycan array binding signal (z-score),[28],-0.138
same,glycan array binding signal (z-score),[29],-0.158
same,glycan array binding signal (z-score),[30],-0.093
